# The supplement of paper PMC5499739
# In all, about 16,000 sequences were measured (“Z-score”: median about -0.37, highest 2% from about 3.2 on). The list shows a part of the results.
# Test system: RBM10 RRM1-ZnF (GST-tagged construct)
# Assay: RNAcompete 7-mer binding Z-score; higher = stronger binding preference
# Method in brief: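 A one-sided Z-score for enrichment, taken across the probes containing each heptamer motif, was assigned to every such motif. The RNA came from a designed pool of 241 399 sequences up to 41 nt (1.5 nmol), bound by 20 pmol of GST-tagged RBM10 constructs in 1 ml Hepes pH 7.8 buffer with glutathione Sepharose beads for 30 min at 4°C. Four 2-min washes at 4°C preceded identification of bound RNA by microarray hybridisation.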
row,Sequence,RNAcompete 7-mer binding Z-score
1,ACACACA,-0.493
2,CAGUUUA,-0.681
3,UUGCGGG,1.52
4,UUUACUU,-0.707
5,CACAUUU,-0.88
6,CUACGGA,0.0723
7,CAGAAAC,-0.444
8,CCUCCUC,-0.542
9,UUUGAUU,-0.448
10,AACUAGU,-0.373
11,CCGCAAG,-0.685
12,CGUGCAA,-0.214
13,GACGUAU,-0.256
14,CUUUUGA,-0.854
15,GUUGAGG,3.36
16,CGAGUCA,-0.379
17,GAAGAGG,3
18,CAAAAAU,-0.526
19,UCGGUUA,-0.0869
20,ACCAUGU,-0.782
21,AAAUCAU,-0.665
22,UCAGAGA,-0.0967
23,CGGCUGU,-0.308
24,UCGGACA,-0.0999

row,Sequence,RNAcompete 7-mer binding Z-score
1,CUCUGUG,-0.698
2,CGCACAA,-0.587
3,GUUCGGC,-0.0869
4,AUGAACA,0.215
5,ACUGAUC,-0.691
6,AGAUCAA,-0.513
7,GCCAAUG,-0.0934
8,GUAGUUC,-0.243
9,AGCGCCC,-0.5
10,UGGGCUG,1.83
11,CUGCACC,-0.441
12,GUCGAUC,-0.269
13,ACACUGG,0.332
14,CCCAUCU,-0.834
15,UAUACAU,-0.509
16,AUGAGUU,0.134
17,AGGCAAG,1.09
18,AGACAAG,0.449
19,CCUAAAU,-0.74
20,ACAUCCC,-0.587
21,AAGCAGC,-0.0934
22,UAAAUUA,-0.532
23,ACGCGCC,-0.542
24,UAUGGUA,1.39

row,Sequence,RNAcompete 7-mer binding Z-score
1,GUACGCG,0.599
2,GGCACGG,1.43
3,GCAGGCC,-0.178
4,CUUUCAU,-0.785
5,UCAAUAG,-0.256
6,ACACCAC,-0.162
7,UUAGUGG,1.42
8,ACUACGG,0.365
9,AGGCCCC,-0.626
10,CUAUCCG,-0.863
11,UAAGCUG,-0.201
12,UUAGCCG,-0.844
13,GCCAGUG,-0.253
14,UUUGAGA,0.043
15,CGGCUUC,-0.633
16,UUGUCUC,-0.808
17,UUUAAAG,-0.334
18,UUAUGCC,-0.724
19,GCAUGUU,-0.373
20,GUCCCAA,-0.626
21,CUGAUAA,-0.457
22,UACGUGU,-0.318
23,CCUUCGG,-0.636
24,CUAGUGU,-0.412

row,Sequence,RNAcompete 7-mer binding Z-score
1,AUAAUGA,-0.0837
2,ACUCUUG,-0.776
3,UUCUUGU,-0.668
4,AUCAUUA,-0.539
5,AGGAUGC,1.03
6,UUAGGGA,2.03
7,UGGACUU,0.0235
8,CUAGGUC,-0.0544
9,UCGUUCC,-0.698
10,GUUGGUU,0.914
11,CAAGGCU,-0.314
12,ACGACUC,-0.815
13,ACGCUAU,-0.496
14,CGACCUG,-0.571
15,GCUGGAG,0.904
16,GCCAAGU,-0.529
17,ACGAAUU,-0.503
18,GGUCCUG,0.15
19,AGCGGUG,1.42
20,UCCUAUG,-0.73
21,UAGAAAC,0.0105
22,GGAAAGU,2.15
23,ACCUAGC,-0.633
24,AAUAUGA,0.056

row,Sequence,RNAcompete 7-mer binding Z-score
1,AGCACUG,-0.158
2,AACCAGC,-0.724
3,UGAAGGC,1
4,CAACUCA,-0.655
5,AUUAUAG,0.095
6,UGUCGGC,-0.444
7,CCCAGGA,-0.0869
8,CACAGGC,-0.126
9,GCCUCCU,-0.623
10,ACGCGUU,-0.503
11,AGUACAG,0.576
12,GUACUCC,-0.604
13,CGUCAUA,-0.714
14,GAUGUAC,-0.0285
15,AUGUGUG,1.01
16,UUUCUUA,-0.727
17,AAGGAGG,4.7
18,CCGUCGC,-0.62
19,UGUCGUA,-0.311
20,CGAAAAG,0.381
21,AUCCGAA,-0.665
22,CCAUGAU,-0.685
23,UGACUUG,-0.617
24,UCUUGUC,-0.795

row,Sequence,RNAcompete 7-mer binding Z-score
1,UCUUUGU,-0.912
2,CACCCAG,-0.522
3,GACGGAG,2.11
4,UCUUGCC,-0.945
5,CCUCCCU,-0.454
6,ACAGUUC,-0.795
7,GGACAGG,3.3
8,UGACCCC,-0.246
9,UACGCUG,-0.184
10,CCACGAU,-0.652
11,GUUUAAU,-0.435
12,UCGAGCG,0.0723
13,CACAAGU,-0.539
14,CUGGGUU,1.53
15,GCAAAUA,-0.236
16,CAUACUC,-0.727
17,GGGAAGC,2.9
18,AAUGCCG,-0.542
19,UGUUAUU,-0.662
20,AAUCCCC,-0.607
21,CAGUGAA,0.277
22,GUAGAGC,0.667
23,AUCCUGA,-0.704
24,UGUUGGC,0.0138

row,Sequence,RNAcompete 7-mer binding Z-score
1,UUAUAUG,-0.21
2,AAGACCU,-0.698
3,GGGACAA,2.07
4,AGAGUAC,-0.292
5,UGAACUU,-0.571
6,CAACGCG,-0.451
7,CUAUCAA,-0.724
8,ACGGGAG,2.64
9,CGCUGUU,-0.617
10,ACUAGGG,2.03
11,UGUGAAU,0.0723
12,UUCAGUU,-0.675
13,AUUGGCG,1.12
14,UUUUCCA,-0.772
15,UACAUUC,-0.795
16,CAGCCCU,-0.766
17,GCCUGGU,-0.227
18,AAAAGGC,0.579
19,AGUGUUA,-0.035
20,GGGUGUA,3.43
21,GGAUAUG,2.73
22,AGGAUGU,1.18
23,AGACGAC,-0.526
24,CGGAGAA,1.36

row,Sequence,RNAcompete 7-mer binding Z-score
1,GAGUUAU,0.00404
2,CCGGAUG,0.413
3,CCCACGU,-0.516
4,AUCGUGU,-0.399
5,AGCGCGA,-0.24
6,AUUCGUG,-0.227
7,ACGACGU,-0.418
8,AUGUGCC,-0.506
9,ACAGCAC,-0.405
10,CGCCUUC,-0.808
11,GGCGCUC,-0.142
12,AAAGUAA,0.14
13,GACUAGG,1.41
14,UUUAGGG,1.65
15,UCCAUUG,-0.73
16,AUUGCUC,-0.717
17,CCACACU,-0.668
18,UCGGUUC,-0.451
19,CCCCCAG,-0.132
20,GAUUGUU,-0.162
21,GCCCAAG,-0.236
22,AUUACCC,-0.805
23,GCUCGUG,-0.103
24,ACCGCAA,-0.795

row,Sequence,RNAcompete 7-mer binding Z-score
1,GGGGGUC,2.18
2,ACAUUUU,-0.893
3,CUAAAGG,0.566
4,GGGGGAC,2.25
5,CAGGGAU,2.36
6,ACCCAGA,-0.587
7,AAGAAGU,0.644
8,UCACGAC,-0.552
9,AGGACCG,-0.165
10,GUUUUAG,0.157
11,ACAACUA,-0.467
12,GCGGUGU,1.1
13,UUCCCAC,-0.584
14,AGCGGAA,2.07
15,GGUCUAA,-0.116
16,CGGGAUC,0.589
17,CACCUUC,-0.769
18,ACUAGUG,0.0983
19,GCGCACA,-0.139
20,UUCGGAA,-0.0187
21,UCACAGA,-0.376
22,GCAUCCC,-0.516
23,CCAAGGG,0.745
24,CAACUGA,-0.396

row,Sequence,RNAcompete 7-mer binding Z-score
1,AUCCGAC,-0.785
2,CUAGGCG,-0.0609
3,UUCCUAA,-0.665
4,UAAAGUU,-0.24
5,CUAGCCG,-0.659
6,UAUGUUC,-0.646
7,GUAGAUG,1.93
8,UUUCCGU,-0.714
9,UACAGUG,0.0138
10,UGGCGCU,0.0333
11,AUUCUUU,-0.681
12,UUAUCAU,-0.733
13,CAGGCUG,0.28
14,GCUUAUC,-0.61
15,CCUGGCA,-0.334
16,AACUCAU,-0.694
17,UACCGGG,0.29
18,GAAUUAG,0.719
